Out of some 360,000 compounds screened, about 2,600 (0.72%) were called active. Inconclusive means that the source gave no clear call. Such entries were picked first, then a sample of the others. Calls come from the whole dose curve; as a rule, active = well fitted inhibition curve with a large enough effect; inconclusive = small, poorly fitted or top-dose-only effect; inactive = no such curve, though single readings can be large or run the other way. Potencies of inconclusive entries are doubtful fits and often do not repeat.
Assay: Primary qHTS for Inhibitors of ATXN expression; note: nearly all actives have a fitted effect of over 55% in size
Details: HEK-293 ATXN2-luciferase reporter, luminescence, 24 h; series mostly up to 57 µM
Summary of the method: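 qHTS (up to 57 uM final) was run with 24 h compound exposure of reporter cells at 37 °C. Each well was multiplexed: SteadyGlo luminescence measured ATXN2-luciferase expression after a fluorogenic Gly-Phe-AFC viability readout (25 uM final).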
Potency is the fitted concentration of half-maximal effect; tags give direction and shape of the fitted curve.

Row | Compound | Potency
1 | CCOc1ccccc1CN1CCCC(C(=O)Nc2cccc(-n3cccn3)c2)C1 (stereo not drawn) | inconclusive: 10 µM [inhibitor, partial curve]
2 | CC(=O)Nc1ccc(S(=O)(=O)N2CCN(c3cccc(C)c3C)CC2)cc1 | inconclusive: 37.7 µM [inhibitor, partial curve, poor fit]
3 | O=C1C=C(Nc2ccccc2O)c2ccccc2C1=O | active: 14.1 µM
4 | COC(=O)c1ccc(N=c2sc(C(=O)OC)cc(=O)n2C)cc1 | inactive
5 | Clc1ccc2c(NCCNC3CCCCC3)ccnc2c1 | active: 2.24 µM
6 | CCCCN(C=O)c1c(CC)nc2c(OCCOc3ccc(F)cc3)cccn12 | inconclusive: 28.2 µM [inhibitor, partial curve, poor fit]
7 | Cc1nc([N+](=O)[O-])c(Br)n1CC(=O)c1ccc2ccccc2c1 | inconclusive: 39.8 µM [inhibitor, single point]
8 | CCN(CC)C(=O)[C@H]1CC(CC(=O)NCc2cccc(C(F)(F)F)c2)C(=O)N2CCc3c([nH]c4ccc(OC)cc34)[C@]12C (stereo partly drawn) | inconclusive: 39.8 µM [inhibitor, single point]
9 | COc1ccc(-c2oc3c(OC)c(OC)c(OC)c(O)c3c(=O)c2OC)cc1OC | inconclusive: 17.8 µM [inhibitor, partial curve]
10 | CC1=C(C(=O)OC(C)C)C(c2cccs2)C(C(=O)OC(C)C)=C(C)N1 | inactive
11 | CCCCc1c(C)c(C#N)c2[nH]c3ccccc3n2c1=O | inconclusive: 3.55 µM [inhibitor, partial curve, poor fit]
12 | COC(=O)c1cc(=O)nc(NN=C2c3ccccc3-c3ccccc32)s1 | inconclusive: 39.8 µM [inhibitor, single point]
13 | COc1ccccc1N(CC(=O)NCCSCc1ccc(C)cc1)S(=O)(=O)c1ccccc1 | inconclusive: 39.8 µM [inhibitor, single point]
14 | CCN(C(=O)C1CCC(CNS(=O)(=O)c2cccc3nsnc23)CC1)c1ccc(C)c(C)c1 (stereo not drawn) | inactive
15 | O=C(O)CC(NC(=S)NCc1ccccc1)C(=O)O (stereo not drawn) | inconclusive: 17.8 µM [inhibitor, partial curve, poor fit]
16 | C[C@H](CO)N1C[C@H](C)[C@@H](CN(C)Cc2ccc(-c3ccccc3)cc2)Oc2c(NS(=O)(=O)c3cn(C)cn3)cccc2C1=O | inactive
17 | COc1ccc(Cl)cc1NC(=O)c1cccc([N+](=O)[O-])c1O | inconclusive: 35.5 µM [inhibitor, single point]
18 | Cc1ccc(-c2nc(SCCOc3ccccc3C)n3[nH]c(=O)cc3n2)cc1 | inconclusive: 31.6 µM [inhibitor, single point]

From PubChem BioAssay AID1745845 (National Center for Advancing Translational Sciences (NCATS), 2022)
